Data as given in PMC10516938, “Conformational dynamics of cohesin/Scc2 loading complex are regulated by Smc3 acetylation and ATP binding” (Nature Communications, 2023).
Results are given in words; binding and its absence hold for the method and conditions named. Binding seen in cells or lysates may run through a third protein. Some results given as binding are weak or reduced against the parent protein; the word gives no strength.

T1: Smc3^QQ W483R S72C (S. cerevisiae) (UniProt P47037)
T1 sequence: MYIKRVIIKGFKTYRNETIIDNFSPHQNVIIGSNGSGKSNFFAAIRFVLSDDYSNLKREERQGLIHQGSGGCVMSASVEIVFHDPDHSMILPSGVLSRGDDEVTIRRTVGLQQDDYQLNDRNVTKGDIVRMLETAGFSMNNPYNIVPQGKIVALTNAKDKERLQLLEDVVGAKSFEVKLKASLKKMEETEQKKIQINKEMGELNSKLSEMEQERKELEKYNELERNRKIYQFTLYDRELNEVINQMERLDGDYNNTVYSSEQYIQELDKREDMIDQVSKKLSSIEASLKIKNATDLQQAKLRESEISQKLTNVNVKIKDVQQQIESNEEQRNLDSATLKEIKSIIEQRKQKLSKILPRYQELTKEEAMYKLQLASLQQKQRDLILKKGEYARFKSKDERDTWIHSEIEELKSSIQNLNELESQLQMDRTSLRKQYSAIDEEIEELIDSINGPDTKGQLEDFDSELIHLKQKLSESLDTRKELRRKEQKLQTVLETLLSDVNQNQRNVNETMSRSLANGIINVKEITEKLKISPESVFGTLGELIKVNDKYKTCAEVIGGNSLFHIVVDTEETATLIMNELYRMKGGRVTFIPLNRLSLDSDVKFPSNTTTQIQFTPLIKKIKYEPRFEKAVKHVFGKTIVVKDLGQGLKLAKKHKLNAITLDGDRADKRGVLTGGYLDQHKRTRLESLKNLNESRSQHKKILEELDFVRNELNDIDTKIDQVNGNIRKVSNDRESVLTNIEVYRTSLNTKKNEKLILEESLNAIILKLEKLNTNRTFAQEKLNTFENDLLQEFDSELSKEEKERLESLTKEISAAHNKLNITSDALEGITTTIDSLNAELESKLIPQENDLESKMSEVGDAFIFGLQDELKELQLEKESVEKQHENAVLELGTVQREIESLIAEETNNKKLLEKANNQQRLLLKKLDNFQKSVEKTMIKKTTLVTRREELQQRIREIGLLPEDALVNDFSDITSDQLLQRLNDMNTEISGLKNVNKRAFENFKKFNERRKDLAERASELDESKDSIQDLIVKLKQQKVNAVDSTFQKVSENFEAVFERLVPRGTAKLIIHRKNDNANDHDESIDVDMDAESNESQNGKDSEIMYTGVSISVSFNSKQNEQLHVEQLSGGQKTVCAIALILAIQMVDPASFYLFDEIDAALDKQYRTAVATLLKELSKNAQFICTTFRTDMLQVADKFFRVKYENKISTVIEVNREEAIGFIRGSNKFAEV

T2: Smc3 Q67C (S. cerevisiae) (UniProt P47037)
T2 sequence: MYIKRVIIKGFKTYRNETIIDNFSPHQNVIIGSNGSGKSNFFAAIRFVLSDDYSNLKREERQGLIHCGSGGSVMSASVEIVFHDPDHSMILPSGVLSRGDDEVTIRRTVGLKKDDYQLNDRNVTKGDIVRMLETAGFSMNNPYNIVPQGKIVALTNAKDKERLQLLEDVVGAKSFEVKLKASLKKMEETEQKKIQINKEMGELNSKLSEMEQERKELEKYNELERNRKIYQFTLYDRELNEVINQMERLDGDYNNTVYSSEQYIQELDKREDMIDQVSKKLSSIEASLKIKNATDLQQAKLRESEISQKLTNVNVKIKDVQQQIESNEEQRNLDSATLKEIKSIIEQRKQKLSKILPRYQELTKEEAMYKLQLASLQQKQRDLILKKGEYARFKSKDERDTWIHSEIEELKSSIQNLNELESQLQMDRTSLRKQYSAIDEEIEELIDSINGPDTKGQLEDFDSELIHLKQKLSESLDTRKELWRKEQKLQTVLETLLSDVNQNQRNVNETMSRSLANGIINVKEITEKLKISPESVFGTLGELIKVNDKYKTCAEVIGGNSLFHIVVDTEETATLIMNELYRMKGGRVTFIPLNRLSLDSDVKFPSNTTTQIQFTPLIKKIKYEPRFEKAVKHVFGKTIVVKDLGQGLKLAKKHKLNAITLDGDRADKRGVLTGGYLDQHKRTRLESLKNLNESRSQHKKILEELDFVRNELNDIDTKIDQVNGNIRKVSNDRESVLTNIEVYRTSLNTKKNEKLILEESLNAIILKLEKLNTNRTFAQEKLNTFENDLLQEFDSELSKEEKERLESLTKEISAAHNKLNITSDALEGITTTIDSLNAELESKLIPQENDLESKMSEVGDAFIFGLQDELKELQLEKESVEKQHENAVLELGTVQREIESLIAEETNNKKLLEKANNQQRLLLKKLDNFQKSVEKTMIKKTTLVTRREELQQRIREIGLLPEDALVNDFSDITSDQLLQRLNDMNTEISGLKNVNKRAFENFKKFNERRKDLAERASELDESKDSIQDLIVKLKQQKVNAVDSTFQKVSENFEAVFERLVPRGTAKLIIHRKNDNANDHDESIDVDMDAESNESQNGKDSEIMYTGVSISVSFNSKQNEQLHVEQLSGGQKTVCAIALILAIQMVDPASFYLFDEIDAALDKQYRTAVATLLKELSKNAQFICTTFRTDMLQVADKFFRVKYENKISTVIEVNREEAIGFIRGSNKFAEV


How the values were obtained:
[1] = target: T1, Smc3^QQ W483R S72C (S. cerevisiae); test: cross-linking; in vivo BMOE cross-link of cysteine pairs in yeast cells arrested in late G1 by non-degradable Sic1(9m); Scc1-PK immunoprecipitated, western blot, band intensities quantified
[2] = target: T2, Smc3 Q67C (S. cerevisiae); test: as above

Row | binding [1] | binding [2] | Binder
1 | binds |  | Scc2 E819C (natural protein, S. cerevisiae, UniProt Q04002 1-1493, looked up, Scc2, S. cerevisiae; source: S. cerevisiae W303, in vivo, whole-cell extract) MSYPGKDKNIPGRIIEALEDLPLSYLVPKDGLAALVNAPMRVSLPFDKTIFTSADDGRDVNINVLGTANSTTSSIKNEAEKERLVFKRPSNFTSSANSVDYVPTNFLEGLSPLAQSVLSTHKGLNDSINIEKKSEIVSRPEAKHKLESVTSNAGNLSFNDNSSNKKTKTSTGVTMTQANLAEQYLNDLKNILDIVGFDQNSAEIGNIEYWLQLPNKKFVLTTNCLTKLQMTIKNITDNPQLSNSIEITWLLRLLDVMVCNIKFSKSSLKMGLDDSMLRYIALLSTIVLFNIFLLGKNDSNLHRESYIMEPVNFLSDLIESLKILTIEYGSLKIEFDTFQEALELLPKYIRNGPFLDDNVTAKLVYIFSDLLMNNDIEATTNIQFQSFWDNVKRISSDILVSLFGSFDQQRGFIIEELLSHIEKLPTKRIQKKLRKVGNQNIYITDFTFTLMSMLENINCYSFCNQMKDIAPENIDLLKNEYKKQEEFLFNIVEHINDTILERFFKNPSALRYVIDNFVQDLLLLISSPQWPVTEKILSSLLKRLLSVYSPSMQVSANIETICLQLIGNIGSTIFDIKCSTRDHEDNNLIKMINYPETLPHFFKSFEECIAYNETIKCRRSATRFLWNLRLGTILILEEYTKDAKEQIITVDNELKKILEQIKDGGLGPELENREADFSTIKLDYFSILHAFELLNLYDPYLKLILSLLAKDKIKLRSTAIKCLSMLASKDKVILSNPMVKETIHRRLNDSSASVKDAILDLVSINSSYFEFYQQINNNYNDDSIMVRKHVLRINEKMYDETNDIVTKVYVIARILMKICDEEDNIIDMARLILLNRWILKVHEVLDQPEKLKEISSSVLLVMSRVAIMNEKCSQLFDLFLNFYLLNKEAHSKEAYDKITHVLTILTDFLVQKIVELNSDDTNEKNSIVDKQNFLNLLAKFADSTVSFLTKDHITALYPYMVSDEKSDFHYYILQVFRCTFEKLANFKQKFLYDLETTLLSRLPKMNVREIDEAMPLIWSVATHRHDTARVAKACSSCLSHLHPYINKANNEEAAIVVDGKLQRLIYLSTGFARFCFPKPSNDKIAFLQEGETLYEHITKCLLVLSKDKITHVIRRVAVKNLTKLCGNHPKLFNSRHVLHLLDKEFQSDQLDIKLVILESLYDLFLLEERKSVRNTGVNSTLSSNSILKKKLLKTNRVEFANDGVCSALATRFLDNILQLCLLRDLKNSLVAIRLLKLILKFGYTNPSHSIPTVIALFASTSQYIRHVAYELLEDLFEKYETLVFSSLSRGVTKAIHYSIHTDEKYYYKHDHFLSLLEKLCGTGKKNGPKFFKVLKRIMQSYLDDITDLTSTNSSVQKSIFVLCTNISNITFVSQYDLVSLLKTIDLTTDRLKEVIMDEIGDNVSSLSVSEEKLSGIILIQLSLQDLGTYLLHLYGLRDDVLLLDIVEESELKNKQLPAKKPDISKFSAQLENIEQYSSNGKLLTYFRKHVKDT
2 |  | binds | Scc2 T1175C (natural protein, S. cerevisiae, UniProt Q04002 1-1493, looked up, Scc2, S. cerevisiae; source: S. cerevisiae W303, in vivo, whole-cell extract) MSYPGKDKNIPGRIIEALEDLPLSYLVPKDGLAALVNAPMRVSLPFDKTIFTSADDGRDVNINVLGTANSTTSSIKNEAEKERLVFKRPSNFTSSANSVDYVPTNFLEGLSPLAQSVLSTHKGLNDSINIEKKSEIVSRPEAKHKLESVTSNAGNLSFNDNSSNKKTKTSTGVTMTQANLAEQYLNDLKNILDIVGFDQNSAEIGNIEYWLQLPNKKFVLTTNCLTKLQMTIKNITDNPQLSNSIEITWLLRLLDVMVCNIKFSKSSLKMGLDDSMLRYIALLSTIVLFNIFLLGKNDSNLHRESYIMEPVNFLSDLIESLKILTIEYGSLKIEFDTFQEALELLPKYIRNGPFLDDNVTAKLVYIFSDLLMNNDIEATTNIQFQSFWDNVKRISSDILVSLFGSFDQQRGFIIEELLSHIEKLPTKRIQKKLRKVGNQNIYITDFTFTLMSMLENINCYSFCNQMKDIAPENIDLLKNEYKKQEEFLFNIVEHINDTILERFFKNPSALRYVIDNFVQDLLLLISSPQWPVTEKILSSLLKRLLSVYSPSMQVSANIETICLQLIGNIGSTIFDIKCSTRDHEDNNLIKMINYPETLPHFFKSFEECIAYNETIKCRRSATRFLWNLRLGTILILEEYTKDAKEQIITVDNELKKILEQIKDGGLGPELENREADFSTIKLDYFSILHAFELLNLYDPYLKLILSLLAKDKIKLRSTAIKCLSMLASKDKVILSNPMVKETIHRRLNDSSASVKDAILDLVSINSSYFEFYQQINNNYNDDSIMVRKHVLRINEKMYDETNDIVTKVYVIARILMKIEDEEDNIIDMARLILLNRWILKVHEVLDQPEKLKEISSSVLLVMSRVAIMNEKCSQLFDLFLNFYLLNKEAHSKEAYDKITHVLTILTDFLVQKIVELNSDDTNEKNSIVDKQNFLNLLAKFADSTVSFLTKDHITALYPYMVSDEKSDFHYYILQVFRCTFEKLANFKQKFLYDLETTLLSRLPKMNVREIDEAMPLIWSVATHRHDTARVAKACSSCLSHLHPYINKANNEEAAIVVDGKLQRLIYLSTGFARFCFPKPSNDKIAFLQEGETLYEHITKCLLVLSKDKITHVIRRVAVKNLTKLCGNHPKLFNSRHVLHLLDKEFQSDQLDIKLVILESLYDLFLLEERKSVRNCGVNSTLSSNSILKKKLLKTNRVEFANDGVCSALATRFLDNILQLCLLRDLKNSLVAIRLLKLILKFGYTNPSHSIPTVIALFASTSQYIRHVAYELLEDLFEKYETLVFSSLSRGVTKAIHYSIHTDEKYYYKHDHFLSLLEKLCGTGKKNGPKFFKVLKRIMQSYLDDITDLTSTNSSVQKSIFVLCTNISNITFVSQYDLVSLLKTIDLTTDRLKEVIMDEIGDNVSSLSVSEEKLSGIILIQLSLQDLGTYLLHLYGLRDDVLLLDIVEESELKNKQLPAKKPDISKFSAQLENIEQYSSNGKLLTYFRKHVKDT
